Results published in PubChem BioAssay AID248 (DTP/NCI, 2004).
Toxic doses and inconclusive results are not listed. Certain results were filed several times, with different values. The list is limited to them. There may be further records. Values that stand side by side do not match, cause unknown; dose, time, organism, isomer or construct need not be as stated for each record.

Test system: L1210 leukemia ip in BDF1 mice, survival T/C
Test: NCI In Vivo Anticancer Drug Screen. Data for tumor model L1210 Leukemia (intraperitoneal) in B6D2F1 (BDF1) mice
Details: endpoint: mean survival time, higher = longer survival

SMILES: CC1(C)CN1P(=S)(N1CC1(C)C)N1CC1(C)C (stereo unspecified)
- T/C (dose: 50.0 mg/kg/injection, schedule: Q01DX009 (ip), vehicle: saline): 110 % of control and 181 % of control

SMILES: COc1ccccc1NC(=O)N(CCCl)N=O
- T/C (dose: 2.3 mg/kg/injection, schedule: Q01DX009 (ip), vehicle: carboxymethylcellulose (CMC)): 117 % of control and 155 % of control

SMILES: S=P(N1CC1)(N1CC1)N1CC1
- T/C (dose: 4.0 mg/kg/injection, schedule: Q04DX003 (ip), vehicle: saline): 105 % of control and 153 % of control
- T/C (dose: 10.0 mg/kg/injection, schedule: Q01DX001 (ip), vehicle: saline): 114 % of control and 150 % of control
- T/C (dose: 16.0 mg/kg/injection, schedule: Q01DX001 (ip), vehicle: saline): 120 % of control, 164 % of control, 190 % of control

SMILES: CN(C)CCNCc1ccccc1
- T/C (dose: 100.0 mg/kg/injection, schedule: Q01DX001 (ip), vehicle: saline): 98 % of control, 99 % of control, 181 % of control
